Source: the supplement of paper PMC7125110
± gives the standard error. This sample is rich in variants without activity.

B1: glmS ribozyme (parent)
chain: AUAAAAGCGCCAGAACUACAGAAAUGUAGUUGACGAGGAGGAGGUUUAUCGAAUUUUCGGCGGAUGCCUCCAAA

Legend:
Settings in all cases: with glucosamine-6-phosphate
[1] = variants of: B1; assay: self-cleavage kobs at 640 uM GlcN6P; higher = faster cleavage; RNA array
Summary of the method: (§1)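 In situ transcription by E. coli RNA polymerase produced barcoded ribozyme variants on sequenced MiSeq chips, and a hybridised Cy3 probe tracked them at 37 °C. Glucosamine-6-phosphate was flowed in at 40 μM to 10 mM in HEPES/KCl/Mg(OAc)2 buffer. kcat and KM were taken from weighted Michaelis–Menten fits of kobs values from exponential decay fits.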

[2] = variants of: B1; assay: self-cleavage kobs at 160 uM GlcN6P; higher = faster cleavage; RNA array
Summary of the method: as §1

[3] = variants of: B1; assay: self-cleavage kobs at 2500 uM GlcN6P; higher = faster cleavage; RNA array
Summary of the method: as §1

[4] = variants of: B1; assay: self-cleavage kobs at 10000 uM GlcN6P; higher = faster cleavage; RNA array
Summary of the method: as §1

Row | Variant | self-cleavage kobs at 640 uM GlcN6P [1] | self-cleavage kobs at 160 uM GlcN6P [2] | self-cleavage kobs at 2500 uM GlcN6P [3] | self-cleavage kobs at 10000 uM GlcN6P [4]
1 | AUAAAAGCGCCAGAACUACAGAAAUGUAGUUGACGAGGAGCAGGUAUAUCGAAUUUUCGCCGGAUGCCUCCAAA [G41C U46A G60C] | < 1e-05 s⁻¹ | – | – | –
2 | AUAAAAGCGCCAGAACUACAGAAAUGUAGUUGACGAGGAGCAGGUUUAUCGAAUUUUCCGCGGAUGCCUCCAAA [G41C G59C] | < 1e-05 s⁻¹ | < 1e-05 s⁻¹ | < 1e-05 s⁻¹ | –
3 | AUAAAAGCGCCAGAACUACAGAAAUGUAGUUGACGAGGAGUAGGUUUAUCGAAUUUUCGGCGGAUGCUCCCAAA [G41U C68U U69C] | < 1e-05 s⁻¹ | < 1e-05 s⁻¹ | < 1e-05 s⁻¹ | –
4 | AUAAAAGCGCCAGAACUACAGAAAUGUAGUUGACGAGGAGUAGGUUUAUCGAAUUUUCGGCGGAUGCGUCCAAA [G41U C68G] | < 1e-05 s⁻¹ | – | – | < 1e-05 s⁻¹
5 | AUAAAAGCGCCAGAACUACAGAAAUGUAGUUGACGAGGAGUAGGCUUAUCGAAUUUUCGGCGGAUGCCUCCAAA [G41U U45C] | 0.000157 ± 4e-05 s⁻¹ | 4.06e-05 ± 1.5e-05 s⁻¹ | 0.000273 ± 5.6e-05 s⁻¹ | 0.000331 ± 4.7e-05 s⁻¹
6 | AUAAAAGCGCCAGAACUACAGAAAUGUAGUUGACGAGGAGUACGUUUAUCGAAUUUUCGGCCGAUGCCUCCAAA [G41U G43C G62C] | < 1e-05 s⁻¹ | – | < 1e-05 s⁻¹ | –
7 | AUAAAAGCGCCAGAACUACAGAAAUGUAGUUGACGAGGAGCAGGUUUAUCGAAUUUUCGGCGGACGGCUCCAAA [G41C U65C C67G] | < 1e-05 s⁻¹ | < 1e-05 s⁻¹ | < 1e-05 s⁻¹ | –
8 | AUAAAAGCGCCAGAACUACAGAAAUGUAGUUGACGAGGAGAGGGGUUAUCGAAUUUUCGGCGGAUGCCUCCAAA [G41A A42G U45G] | 0.0066 ± 0.002 s⁻¹ | – | – | –
9 | AUAAAAGCGCCAGAACUACAGAAAUGUAGUUGACGAGGAGAAGGCUUAUCGAAUUUUCUUCGGAUGCCUCCAAA [G41A U45C G59U G60U] | < 1e-05 s⁻¹ | – | – | –
10 | AUAAAAGCGCCAGAACUACAGAAAUGUAGUUGACGAGGAGCAGGUUUAUCGAAUUUUCGGCGCUUGCCUCCAAA [G41C G63C A64U] | < 1e-05 s⁻¹ | – | < 1e-05 s⁻¹ | –
11 | AUAAAAGCGCCAGAACUACAGAAAUGUAGUUGACGAGGAGUAUGUUUAUCGAAUUUUCCGCGGAUGCCUCCAAA [G41U G43U G59C] | < 1e-05 s⁻¹ | – | – | < 1e-05 s⁻¹
12 | AUAAAAGCGCCAGAACUACAGAAAUGUAGUUGACGAGGAGCAGGUUUAUCUAAUGUUCGGCGGAUGCCUCCAAA [G41C G51U U55G] | < 1e-05 s⁻¹ | – | < 1e-05 s⁻¹ | –
13 | AUAAAAGCGCCAGAACUACAGAAAUGUAGUUGACGAGGAGAAGGUUUAUCGAAUUUUCGGCGGAUUCCUACAAA [G41A G66U C70A] | 9.26e-05 ± 3.3e-05 s⁻¹ | – | 6.32e-05 ± 2.8e-05 s⁻¹ | 0.000131 ± 2e-05 s⁻¹
14 | AUAAAAGCGCCAGAACUACAGAAAUGUAGUUGACGAGGAGCAGGUUUUUCUAAUUUUCGGCGGACGCCUCCAAA [G41C A48U G51U U65C] | < 1e-05 s⁻¹ | – | < 1e-05 s⁻¹ | –
15 | AUAAAAGCGCCAGAACUACAGAAAUGUAGUUGACGAGGAGCUGGUUUAUCGAAAUUUCGGCGGAUGCCUCCAAA [G41C A42U U54A] | < 1e-05 s⁻¹ | – | – | –
16 | AUAAAAGCGCCAGAACUACAGAAAUGUAGUUGACGAGGAGUAGGUUUAUCUAAUUUUCGGCUGAUGCCUCCAAA [G41U G51U G62U] | < 1e-05 s⁻¹ | – | – | –
17 | AUAAAAGCGCCAGAACUACAGAAAUGUAGUUGACGAGGAGAAGGUAUAUUGAAUUUUCGGCGGAUGCCUCCAAA [G41A U46A C50U] | < 1e-05 s⁻¹ | < 1e-05 s⁻¹ | < 1e-05 s⁻¹ | –
18 | AUAAAAGCGCCAGAACUACAGAAAUGUAGUUGACGAGGAGCAGGUGUAUCGAAUUUUCGGCGAAUACCUCCAAA [G41C U46G G63A G66A] | < 1e-05 s⁻¹ | – | < 1e-05 s⁻¹ | –
19 | AUAAAAGCGCCAGAACUACAGAAAUGUAGUUGACGAGGAGCAGGUUUAUCGAAUUUUCGGCGGAUUCCUCCAAA [G41C G66U] | < 1e-05 s⁻¹ | < 1e-05 s⁻¹ | – | –

Row | Variant | self-cleavage kobs at 640 uM GlcN6P [1] | self-cleavage kobs at 160 uM GlcN6P [2] | self-cleavage kobs at 2500 uM GlcN6P [3] | self-cleavage kobs at 10000 uM GlcN6P [4]
20 | AUAAAAGCGCCAGAACUACAGAAAUGUAGUUGACGAGGAGCAGGUUUAUGCAAUUUUCGGCGGAUGCCUCCAAA [G41C C50G G51C] | < 1e-05 s⁻¹ | – | – | –
21 | AUAAAAGCGCCAGAACUACAGAAAUGUAGUUGACGAGGAGCAGGUUUCUCGAAUUUUCGGUGGAUGCCUCCAAA [G41C A48C C61U] | < 1e-05 s⁻¹ | – | < 1e-05 s⁻¹ | –
22 | AUAAAAGCGCCAGAACUACAGAAAUGUAGUUGACGAGGAGUAGGUUUAUCGAAUUUUAGGCGGAUGCCUCCAAA [G41U C58A] | < 1e-05 s⁻¹ | < 1e-05 s⁻¹ | – | –
23 | AUAAAAGCGCCAGAACUACAGAAAUGUAGUUGACGAGGAGUAGAUUUAUUGAAUUUUCGGCGGAUGCCUCCAAA [G41U G44A C50U] | < 1e-05 s⁻¹ | – | < 1e-05 s⁻¹ | –
24 | AUAAAAGCGCCAGAACUACAGAAAUGUAGUUGACGAGGAGCAGGUUUAUCUAAUUUUCGGCGGCUGCCUCCAAA [G41C G51U A64C] | < 1e-05 s⁻¹ | – | < 1e-05 s⁻¹ | –
25 | AUAAAAGCGCCAGAACUACAGAAAUGUAGUUGACGAGGAGAAGGUUUAUCGAUUUUUCGGAGCAUGCCUCCAAA [G41A A53U C61A G63C] | < 1e-05 s⁻¹ | < 1e-05 s⁻¹ | < 1e-05 s⁻¹ | –
26 | AUAAAAGCGCCAGAACUACAGAAAUGUAGUUGACGAGGAGCAGGUUUACCGAAGUUUCGGCGGAUCCCUCCAAA [G41C U49C U54G G66C] | < 1e-05 s⁻¹ | – | – | –
27 | AUAAAAGCGCCAGAACUACAGAAAUGUAGUUGACGAGGAGAAGGUGUAUCGAAUUUUCGGCGGAUGCUUCCAAA [G41A U46G C68U] | < 1e-05 s⁻¹ | < 1e-05 s⁻¹ | – | –
28 | AUAAAAGCGCCAGAACUACAGAAAUGUAGUUGACGAGGAGCUGGUUUAUCGAAUCUUCGGUGGAUCCCUCCAAA [G41C A42U U55C C61U G66C] | < 1e-05 s⁻¹ | – | – | –
29 | AUAAAAGCGCCAGAACUACAGAAAUGUAGUUGACGAGGAUGAGGUUUAUCGAAUUCACGGCGGAUGCCUCCAAA [G40U U56C U57A] | < 1e-05 s⁻¹ | < 1e-05 s⁻¹ | – | –
30 | AUAAAAGCGCCAGAACUACAGAAAUGUAGUUGACGAGGAGCAGGUUUAUCGAUUUUUCGGCGGAUGCCUCCAAA [G41C A53U] | 7.44e-05 ± 1.2e-05 s⁻¹ | – | – | –
31 | AUAAAAGCGCCAGAACUACAGAAAUGUAGUUGACGAGGAGAAGGUUUAUACAUUUUUCGGCGGAUGCCUCCAAA [G41A C50A G51C A53U] | < 1e-05 s⁻¹ | < 1e-05 s⁻¹ | < 1e-05 s⁻¹ | –
32 | AUAAAAGCGCCAGAACUACAGAAAUGUAGUUGACGAGGAGCAGGUUUAUUGAAUUUUCUGCGGAUGCCUCCAAA [G41C C50U G59U] | < 1e-05 s⁻¹ | – | – | –
33 | AUAAAAGCGCCAGAACUACAGAAAUGUAGUUGACGAGGAUGAGGUUUAUCGAAUAUUCGGCGGAUGCCUCAAAA [G40U U55A C71A] | 0.00279 ± 0.00086 s⁻¹ | – | – | 0.0227 ± 0.0049 s⁻¹
34 | AUAAAAGCGCCAGAACUACAGAAAUGUAGUUGACGAGGAGUAGGUUUAUCGCAUUUUCGGCGGAUGCCUCAAAA [G41U A52C C71A] | < 1e-05 s⁻¹ | – | < 1e-05 s⁻¹ | –
35 | AUAAAAGCGCCAGAACUACAGAAAUGUAGUUGACGAGGAGUAGGUUUAUCGAAUUUUCGGCGGAUGGCUCCAAA [G41U C67G] | < 1e-05 s⁻¹ | < 1e-05 s⁻¹ | < 1e-05 s⁻¹ | < 1e-05 s⁻¹
36 | AUAAAAGCGCCAGAACUACAGAAAUGUAGUUGACGAGGAGUAGGUUUAUCGAAUUUUCGGCGGAUGACUCCAAA [G41U C67A] | < 1e-05 s⁻¹ | < 1e-05 s⁻¹ | – | –
37 | AUAAAAGCGCCAGAACUACAGAAAUGUAGUUGACGAGGAGAAGGUUUAUCGAAUUUUCGGCGGAUGAAUCCAAA [G41A C67A C68A] | < 1e-05 s⁻¹ | < 1e-05 s⁻¹ | – | –
